Measured values published in PubChem BioAssay AID686978 (National Center for Advancing Translational Sciences (NCATS), 2013).
In all, about 420,000 compounds went through this assay and about 64,000 (15%) were called active. The shares of active, inactive and inconclusive entries below differ from those in the screen. Calls come from the whole dose curve; as a rule, active = well fitted inhibition curve with a large enough effect; inconclusive = small, poorly fitted or top-dose-only effect; inactive = flat fitted curve, though single readings scatter. No potency is given beside an inconclusive call; the fits are too rough.
% is set by controls: 0 for no effect and ±100 for the full control effect; potency is the fitted concentration of half-maximal effect; tags give direction and shape of the fitted curve.

Assay: qHTS for Inhibitors of human tyrosyl-DNA phosphodiesterase 1 (TDP1): qHTS in cells in absence of CPT; note: nearly all actives have a fitted effect of over 55% in size
Details: DT40 Tdp1-/- hTDP1 cells, no CPT, ATP luminescence, 48 h; activity change, negative = growth inhibition: at 46.2 µM (top of the series)
Method in brief: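 Chicken DT40 Tdp1-/- cells complemented with human TDP1, screened without camptothecin (DMSO vehicle only), 400 cells/well. Compounds pin-transferred, cells incubated at 37 °C for at least 48 hr. Growth read as ATP-dependent luminescence (CellTiter-Glo, 30 min at RT).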
For `COc1ccc2[nH]cc(CCNc3cc(-c4c(C)noc4C)ncn3)c2c1`, the Potency was inconclusive [inhibitor, full curve, poor fit].
With `Nc1c(C(=O)Nc2nccs2)sc2nc(-c3cccs3)cc(C(F)(F)F)c12` the activity change, negative = growth inhibition was inconclusive: -32.5% [inhibitor].
For `Cc1cccn2c(=O)c3cc(C(=O)NC4CCCC4)c(=N)n(CC4CCCO4)c3nc12` (stereo unspecified), the Potency was inconclusive [inhibitor, partial curve].
With `COc1ccc(C(=O)Nc2ccc(-c3ccc(NC(=O)c4ccc(OC)cc4)c(OC)c3)cc2OC)cc1` the Potency was inconclusive [inhibitor, partial curve].
In the case of `COc1ccc(CC(=O)Nc2ccc(N3CCCC3)c(C)c2)cc1`, the Potency is reported as inconclusive [inhibitor, single point].
In the case of `Cc1nc(NC(=O)c2ccccc2)sc1-c1cc(C(=O)N2CCOCC2)nn1Cc1ccccc1`, the Potency is reported as “inactive”.
For `N#CCC(=O)N/N=C/c1ccc(OS(=O)(=O)c2ccccc2)cc1`, the Potency was “inactive”.
In the case of `CC(O)(COc1ccccc1)c1ccc2c(c1)CN(Cc1cn[nH]c1-c1ccc(F)cc1)CCO2` (stereo unspecified), the Potency is reported as inconclusive [inhibitor, single point].
For `COc1ccc(C2=C(Nc3ccc(C)cc3)c3ccccc3C2=O)cc1`, the Potency was inconclusive [inhibitor, partial curve].
For `COc1ccc(-c2ccc3c(N)c(C(=O)NCc4ccc(C)cc4)sc3n2)cc1`, the Potency was inconclusive [inhibitor, single point].
For `Cc1ccc2c(c1)N(C(=O)N1CCC(C(=O)NCCc3ccccc3)CC1)CC(C)O2` (stereo unspecified), the Potency was inconclusive [inhibitor, single point].
In the case of `COCC(=O)N1CCCC(C(=O)c2ccc3c4c(cccc24)CC3)C1` (stereo unspecified), the Potency is reported as inconclusive [inhibitor, single point].
With `COC(=O)c1cccc(NC(=O)c2ccc3c(c2)C(=O)N(Cc2cccnc2)C3=O)c1C` the Potency was “inactive”.
In the case of `c1ccc2c(NCCc3c[nH]c4ccccc34)c3ccccc3nc2c1`, the Potency is reported as active: 2.91 µM.
With `O=C(Nc1ccccc1)c1cc(C2CCCCN2S(=O)(=O)Cc2cccc(C(F)(F)F)c2)on1` (stereo unspecified) the Potency was inconclusive [inhibitor, single point].
In the case of `CC(C)(C)OC(=O)N1CCC(c2c(C(=O)NCCN3CCOCC3)cnn2-c2ccc(F)cc2)CC1`, the Potency is reported as inconclusive [inhibitor, single point].
With `CN(C)C=NC(=O)c1ccc(N2CCN(c3ncc(C(F)(F)F)cc3Cl)CC2)cc1` the Potency was inconclusive [inhibitor, single point].
For `Cc1ccccc1-n1c(=O)n(Cc2ccco2)c(=O)c2[nH]cnc21`, the Potency was “inactive”.
With `Cc1ccc(-c2csc3ncnc(-n4nnc5ccccc54)c23)cc1C` the Potency was inconclusive [inhibitor, single point].
With `Cc1ccc(-c2noc(-c3cc4ccccc4oc3=O)n2)cc1` the Potency was “inactive”.
In the case of `Cc1cc(NC(=O)CSc2nc3c(sc4ccccc43)c(=O)n2CCc2ccccc2)n[nH]1`, the Potency is reported as inconclusive [inhibitor, single point].
For `CN(CC(=O)Nc1cccc(F)c1)C(=O)c1ccc(C2SCCS2)cc1`, the Potency was inconclusive [inhibitor, single point].
For `Cc1cc(NCc2ccccc2)nc2ccccc12`, the Potency was inconclusive [inhibitor, partial curve, poor fit].
With `CC(=O)Nc1ccc(CN2C(=O)C(Cc3ccccc3)ON=C2c2cccc(F)c2)cc1` (stereo unspecified) the Potency was inconclusive [inhibitor, single point].
With `Cc1ccc([C@@H]2CC(=O)[C@@H]3CN(S(=O)(=O)c4ccc(C)cc4)[C@H](c4ccccc4F)C[C@@H]3N2S(=O)(=O)c2ccc(Cl)cc2)cc1` the Potency was “inactive”.
In the case of `O=C(COc1ccc(F)cc1)Nc1nnc(SCc2cc(=O)n3ccccc3n2)s1`, the Potency is reported as inconclusive [inhibitor, single point].
With `CC(OC(=O)C1CCN(S(=O)(=O)c2ccc3c(c2)OCCO3)CC1)C(=O)N(C)c1ccccc1` (stereo unspecified) the Potency was inconclusive [inhibitor, single point].
With `CC1(C)Cc2c(cnn2-c2ccccc2)C(NC(=O)CCc2ccc(=O)[nH]n2)C1` (stereo unspecified) the Potency was “inactive”.
For `CCCN1CCC(=O)N([C@H](CSc2ccc(OC)cc2)CC(C)C)CC1`, the Potency was inconclusive [inhibitor, single point].
In the case of `COc1cccc(OCc2nnc(SCc3cc(=O)[nH]c4ccccc34)o2)c1`, the Potency is reported as inconclusive [inhibitor, single point].
In the case of `COc1ccc(C)cc1NC(=O)C(Cc1ccccc1)NS(=O)(=O)c1ccc(Br)s1` (stereo unspecified), the Potency is reported as inconclusive [inhibitor, single point].
In the case of `NC(=S)NNC(=S)Nc1ccccc1`, the Potency is reported as inconclusive [inhibitor, single point].
For `CC(=O)c1ccc(S(=O)(=O)N(CCCO)Cc2cc3cc(C)ccc3[nH]c2=O)cc1`, the Potency was “inactive”.
In the case of `O=S(=O)(NCCOc1cccc2cccnc12)c1ccc(F)cc1`, the Potency is reported as inconclusive [inhibitor, partial curve].
In the case of `CN1c2ccccc2C(C)(C)C12C=Cc1cc(O)ccc1O2` (stereo unspecified), the Potency is reported as active: 15.8 µM.
For `CCC[n+]1c(/C=C/c2c(OC)cc(OC)cc2OC)ccc2ccccc21`, the Potency was active: 0.0891 µM.
For `Cc1cc(C(=O)COc2cc(F)ccc2[N+](=O)[O-])c(C)n1C1CC1`, the Potency was inconclusive [inhibitor, single point].
In the case of `COc1ccc(NS(=O)(=O)c2ccc(NC(=O)c3ccccn3)cc2)cc1`, the Potency is reported as inconclusive [inhibitor, partial curve, poor fit].
For `Cc1cc(Cl)ccc1NC(=O)CN1C(=O)COc2ccc(S(=O)(=O)Nc3ccccc3)cc21`, the Potency was inconclusive [inhibitor, single point].
For `Cn1cnc([N+](=O)[O-])c1S(=O)(=O)Oc1ccc(Cl)cc1`, the Potency was active: 2.06 µM.
With `Cc1cc(C)c(C)c(S(=O)(=O)N2CCN(C(=O)c3ccccc3OCc3c(C)noc3C)CC2)c1C` the Potency was active: 18.4 µM.
